Values joined by “and” are separate entries in the source; they are usually repeats but may differ in a detail not shown here. Identical values can stand only once. This list was built around the results that the source calls inconclusive (neither active nor inactive); the mix of calls is not that of the screen. For part of these data: Potencies of inconclusive entries are doubtful fits and often do not repeat. Active and inactive are the calls of the source. Unless noted, the call rests on the fitted dose curve; in most records, active means well fitted curve in the direction sought with a large enough effect in the repeat runs; inconclusive means weak or mixed curves; inactive means no such curve, though single readings can be large; an effect the other way counts as inactive or inconclusive.
How the values were obtained:
[1] = qHTS assay to identify small molecule agonists of H2AX (AID 1224845; active means well fitted activation curve with a large enough effect in the signal ratio in the repeat runs, not every such curve was filed as active; inconclusive means weak or mixed curves; the % refers to the signal ratio; further: potency means the concentration at half of the fitted maximal effect); details: CHO-K1 phospho-H2AX Ser139 HTRF, 3 h; activation (H2AX phosphorylation): at 154 µM (top of the series) unless noted
In short: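 Phospho-H2AX Ser139 measured by HTRF (ex 320 nm; em 665 and 620 nm) after 24 hr antibody incubation. Compounds, 15 concentrations, 0.76% DMSO, were applied to CHO-K1 cells for 3hr at 37C before lysis.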

[2] = qHTS RealTime-Glo MT Cell Viability Assay in HEK293 cells - 32 hour (AID 1224868); further: nearly all actives have a fitted effect of over 50% in size; further: potency means the concentration at half of the fitted maximal effect
In short: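 HEK293 cells seeded with NanoLuc/prosubstrate reagent, rested 5 h at 37 C, then dosed and kept at 37 C up to 40 h. Nonlytic real-time luminescence from viable cells read at 0, 8, 16, 24, 32 and 40 h.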

[3] = qHTS assay to identify small molecule antagonists of the TGF-beta/Smad signaling pathway (AID 1346924; active means well fitted inhibition curve with a large enough effect in the signal ratio in the repeat runs, not every such curve was filed as active; inconclusive means weak or mixed curves; the % refers to the signal ratio; further: potency means the concentration at half of the fitted maximal effect); details: SBE-bla HEK293T, TGF-beta/Smad reporter, beta-lactamase ratio; activity, negative = inhibition: at 76.8 µM (top of the series) unless noted
In short: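 SBE-bla HEK 293T cells were plated overnight, then received compound in DMSO plus TGF-beta1 (added as a 0.25 ng/mL solution) and were incubated 5 h at 37 C. Beta-lactamase reporter activity was read after 2 h at room temperature with LiveBLAzer B/G FRET substrate (ex 405, em 460/530 nm).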

[4] = molecular target: Nuclear receptor subfamily 1 group I member 3 (Homo sapiens) (UniProt Q14994); assay: qHTS assay to identify small molecule agonists of the constitutive androstane receptor (CAR) signaling pathway (AID 1224839); further: nearly all actives have a fitted effect of over 15% in size; further: potency means the concentration at half of the fitted maximal effect
In short: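 Double-stable HepG2 cells (hCAR, CYP2B6-2.2kb) seeded 4 h before compound addition. Exposure 24 h with 0.75 uM PK11195 final. Luciferase detected by ONE-Glo.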

[5] = molecular target: Estrogen receptor (Homo sapiens) (UniProt P03372); assay: qHTS assay to identify small molecule antagonists of the estrogen receptor alpha (ER-alpha) signaling pathway (AID 743069; active means well fitted curve in the direction sought with a large enough effect in the signal ratio in the repeat runs, not every such curve was filed as active; inconclusive means weak or mixed curves, or effect the other way; inactive means no such curve, though single readings can be large or run the other way; the % refers to the signal ratio; further: on the % scale 0 is the no-effect control and ±100 the full control effect); details: HEK293 ER-alpha-UAS-bla, beta-lactamase ratio, antagonist mode; activity, negative = inhibition: at 69.4 µM (top of the series) unless noted
In short: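 Compound effects are measured against 17beta-estradiol stimulation in HEK293 cells with a UAS-controlled beta-lactamase reporter for ER-alpha. Exposure lasts 18 hr at 37C; LiveBLAzer B/G FRET substrate follows for 2 hr at room temperature.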

[6] = molecular target: Progesterone receptor (Homo sapiens) (UniProt P06401); assay: qHTS assay to identify small molecule agonists of the progesterone receptor (PR) signaling pathway (AID 1346784; calls by dose curve; further: nearly all actives have a fitted effect of over 30% in size; further: potency means the concentration at half of the fitted maximal effect); details: PR-UAS-bla HEK293T, beta-lactamase FRET ratio, 16 h; activation: at 92.4 µM (top of the series) unless noted
In short: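 Compounds were tested for PR agonism in HEK 293T cells bearing a beta-lactamase gene under UAS control. Treatment lasted 16 hr at 37C; signal came from fluorescence of a FRET substrate.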

[7] = qHTS assay to identify small molecule agonists of the vitamin D receptor (VDR) signaling pathway - cell viability counter screen (AID 743224); further: potency means the concentration at half of the fitted maximal effect; nearly all actives have a fitted effect of over 50% in size
In short: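 Here cell health was gauged by luminescent ATP detection (CellTiter-Glo, 30 min RT) in VDR-bla cells that had been incubated with test compounds for 16 h at 37C and 5% CO2.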

[8] = Human pregnane X receptor (PXR) small molecule agonists, qHTS cell viability counter screen (AID 1346977); further: potency means the concentration at half of the fitted maximal effect; nearly all actives have a fitted effect of over 50% in size
In short: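 Tox21 qHTS format; PXR-Luc HepG2, 2,000/well, charcoal-stripped FBS 5%. Cpd exposure 24hr. Read: CellTiter-Fluor fluorescence, multiplexed with luciferase.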

[9] = molecular target: Estrogen receptor (Homo sapiens) (UniProt P03372); assay: qHTS assay to identify small molecule agonists of the estrogen receptor alpha (ER-alpha) signaling pathway using the BG1 cell line (AID 743079); details: BG1Luc4E2 cells, ERE-luciferase agonist, 22 h; activation: at 70.3 µM (top of the series) unless noted; further: nearly all actives have a fitted effect of over 20% in size; further: potency means the concentration at half of the fitted maximal effect
[10] = qHTS assay to identify small molecule agonists of the peroxisome proliferator-activated receptor delta (PPARd) signaling pathway - cell viability counter screen (AID 743211); details: PPARd-bla HEK293H viability, CellTiter-Glo luminescence, 17 h; activity change, negative = cytotoxicity: at 62.6 µM (top of the series) unless noted; further: nearly all actives have a fitted effect of over 55% in size; further: potency means the concentration at half of the fitted maximal effect
In short: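 qHTS cell viability: PPARd-bla HEK293H; 17 h cpd, 37C; CellTiter-Glo, luminescence at 30 min RT.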

[11] = molecular target: Peroxisome proliferator-activated receptor delta (Homo sapiens) (UniProt Q03181); assay: qHTS assay to identify small molecule agonists of the peroxisome proliferator-activated receptor delta (PPARd) signaling pathway (AID 743212; calls by dose curve; further: on the % scale 0 is the no-effect control and ±100 the full control effect); details: HEK293H PPARd-UAS-bla, beta-lactamase FRET ratio, 17 h; activation: at 62.6 µM (top of the series) unless noted
In short: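 HEK293H UAS-bla reporter cells, human PPARd system; compounds delivered in DMSO after 5 h plating, then at 37 C. Beta-lactamase FRET read, 2 h RT substrate step.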

[12] = molecular target: Peroxisome proliferator-activated receptor gamma (Homo sapiens) (UniProt P37231); assay: qHTS assay to identify small molecule agonists of the peroxisome proliferator-activated receptor gamma (PPARg) signaling pathway (AID 743094; active means well fitted activation curve with a large enough effect in the signal ratio in the repeat runs, not every such curve was filed as active; inconclusive means weak or mixed curves, or effect the other way; inactive means no such curve, though single readings can be large or run the other way; the % refers to the signal ratio; further: on the % scale 0 is the no-effect control and ±100 the full control effect); details: HEK293H PPARg-UAS-bla, beta-lactamase FRET ratio, 17 h; activation: at 57 µM (top of the series) unless noted
In short: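 Following 5 h plating at 37C, PPARg-bla HEK293H cells receive compound or DMSO for 17 h; fluorescence intensity is recorded after LiveBLAzer B/G loading for 1 h at room temperature.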

[13] = molecular target: Peroxisome proliferator-activated receptor delta (Homo sapiens) (UniProt Q03181); assay: qHTS assay to identify small molecule antagonists of the peroxisome proliferator-activated receptor delta (PPARd) signaling pathway (AID 743215; active means well fitted inhibition curve with a large enough effect in the signal ratio in the repeat runs, not every such curve was filed as active; inconclusive means weak or mixed curves, or effect the other way; inactive means no such curve, though single readings can be large or run the other way; the % refers to the signal ratio;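 further: cells stimulated with agonist L165041 at 300 nM final during compound exposure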; further: potency means the concentration at half of the fitted maximal effect); details: HEK293H PPARd-UAS-bla, beta-lactamase FRET ratio, antagonist, 17 h; ratio activity, negative = inhibition: at 62 µM (top of the series) unless noted
In short: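 With L165041 present at 300 nM final, compounds were incubated 17 h at 37 C on PPARd UAS-bla HEK293H cells. A FRET-based beta-lactamase substrate was then applied for 2 h at room temperature and fluorescence intensity recorded.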

[14] = molecular target: Thyrotropin receptor (Homo sapiens) (UniProt P16473); assay: qHTS assay to identify small molecule antagonists of the thyroid stimulating hormone receptor (TSHR) signaling pathway (AID 1259385; calls by dose curve; further: nearly all actives have a fitted effect of over 20% in size; further: potency means the concentration at half of the fitted maximal effect); details: TSHR-HEK293 cAMP HTRF, TSH-stimulated antagonist mode; activity change, negative = inhibition: at 92.4 µM (top of the series) unless noted
In short: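 Antagonist mode: compound-treated TSHR-expressing HEK293 cells were stimulated with 1.5 ng/mL TSH (final) in presence of Ro20-1724 for 30 min at RT. HTRF cAMP detection after 1 h; each compound tested at 15 concentrations, triplicate.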

[15] = qHTS assay to identify small molecule antagonists of the peroxisome proliferator-activated receptor gamma (PPARg) signaling pathway - cell viability counter screen (AID 743194); details: PPARg-bla HEK293H viability, CellTiter-Glo luminescence, 17 h, co-treated with 50 nM rosiglitazone; activity change, negative = cytotoxicity: at 62.6 µM (top of the series) unless noted; further: potency means the concentration at half of the fitted maximal effect; nearly all actives have a fitted effect of over 55% in size
In short: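 Viability was measured as CellTiter-Glo luminescence in GeneBLAzer PPARg UAS-bla HEK293H cells. These cells had been exposed 17 h at 37 C to compounds together with rosiglitazone at 50 nM final, with the beta-lactamase readout taken in the same wells.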

[16] = molecular target: Bile acid receptor (Homo sapiens) (UniProt Q96RI1); assay: qHTS assay to identify small molecule antagonists of the farnesoid-X-receptor (FXR) signaling pathway (AID 743217; active means well fitted inhibition curve with a large enough effect in the signal ratio in the repeat runs, not every such curve was filed as active; inconclusive means weak or mixed curves, or effect the other way; inactive means no such curve, though single readings can be large or run the other way; the % refers to the signal ratio; further: on the % scale 0 is the no-effect control and ±100 the full control effect); details: HEK293T FXR-UAS-bla, beta-lactamase ratio, CDCA-stimulated, 16 h; activity change, negative = inhibition: at 62.6 µM (top of the series) unless noted
In short: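 In this cell-based antagonist screen, inhibition of CDCA-driven (50 uM final) UAS-beta-lactamase expression in HEK 293T cells was measured by FRET fluorescence following 16 h compound exposure at 37 °C.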

[17] = qHTS assay to identify small molecule agonists of the TGF-beta/Smad signaling pathway (AID 1346859; active means well fitted activation curve with a large enough effect in the signal ratio in the repeat runs, not every such curve was filed as active; inconclusive means weak or mixed curves; the % refers to the signal ratio; further: potency means the concentration at half of the fitted maximal effect)
In short: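 Each well held 4,000 SBE-bla HEK 293T cells incubated overnight before compound addition; 5 hr later the cleavable FRET substrate went on for 2 hr at room temperature, and fluorescence was read at two emissions.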

[18] = molecular target: Thyrotropin receptor (Homo sapiens) (UniProt P16473); assay: qHTS assay to identify small molecule agonists of the thyroid stimulating hormone receptor (TSHR) signaling pathway (AID 1224843; calls by dose curve; further: nearly all actives have a fitted effect of over 45% in size; further: potency means the concentration at half of the fitted maximal effect); details: TSHR-HEK293 cells, cAMP HTRF, agonist mode, 30 min; activation: at 92.4 µM (top of the series) unless noted
In short: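 HEK293 cells stably bearing the thyrotropin receptor were plated at 800 cells/well and challenged with compound (30 min, RT). Accumulated cAMP was quantified via cAMP-d2 competing for cryptate-tagged antibody.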

[19] = molecular target: Voltage-gated inwardly rectifying potassium channel KCNH2 (Homo sapiens) (UniProt Q12809); assay: Human Ether-a-go-go-Related Gene (hERG) channel small molecule antagonists: fluorescence cell-based qHTS assay (AID 1671200); further: potency means the concentration at half of the fitted maximal effect; nearly all actives have a fitted effect of over 50% in size
In short: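 Kinetic two-minute fluorescence traces, sampled at 1 s, were collected following thallium stimulus of U2OS cells (1000 per well) that had been cultured overnight at 37 C and loaded with FluxOR II.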

[20] = molecular target: Cytochrome P450 3A4 (Homo sapiens) (UniProt P08684); assay: Cytochrome P450 Family 3 Subfamily A Member 4 (CYP3A4) small molecule antagonists: luciferase reporter qHTS assay (AID 1671201)
In short: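 Proluciferin-to-luciferin conversion by CYP3A4, NADPH-regenerated, 1 h RT; luminescence read as RLU. Ketoconazole as control.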
Tags describe the fitted curve by direction and shape or compound fluorescence and quenching.

Sequence of UniProt P03372 (P03372 whole entry, looked up): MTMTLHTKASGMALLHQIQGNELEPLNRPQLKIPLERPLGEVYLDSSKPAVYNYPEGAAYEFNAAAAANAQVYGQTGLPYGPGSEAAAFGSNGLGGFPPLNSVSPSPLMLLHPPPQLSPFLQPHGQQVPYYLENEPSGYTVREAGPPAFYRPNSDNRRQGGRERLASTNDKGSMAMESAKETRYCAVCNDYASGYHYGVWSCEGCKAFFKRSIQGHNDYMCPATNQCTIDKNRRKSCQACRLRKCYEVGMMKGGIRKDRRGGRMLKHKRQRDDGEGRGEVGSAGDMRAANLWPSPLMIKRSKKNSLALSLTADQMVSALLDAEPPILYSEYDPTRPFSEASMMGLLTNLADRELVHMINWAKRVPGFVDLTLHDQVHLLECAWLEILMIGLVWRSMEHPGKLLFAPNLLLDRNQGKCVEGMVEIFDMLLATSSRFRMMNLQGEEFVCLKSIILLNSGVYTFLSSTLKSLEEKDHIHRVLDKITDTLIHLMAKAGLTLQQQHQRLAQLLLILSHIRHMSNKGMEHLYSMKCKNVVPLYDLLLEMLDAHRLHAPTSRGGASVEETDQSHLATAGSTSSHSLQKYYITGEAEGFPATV
Sequence of UniProt P16473 (P16473 whole entry, looked up): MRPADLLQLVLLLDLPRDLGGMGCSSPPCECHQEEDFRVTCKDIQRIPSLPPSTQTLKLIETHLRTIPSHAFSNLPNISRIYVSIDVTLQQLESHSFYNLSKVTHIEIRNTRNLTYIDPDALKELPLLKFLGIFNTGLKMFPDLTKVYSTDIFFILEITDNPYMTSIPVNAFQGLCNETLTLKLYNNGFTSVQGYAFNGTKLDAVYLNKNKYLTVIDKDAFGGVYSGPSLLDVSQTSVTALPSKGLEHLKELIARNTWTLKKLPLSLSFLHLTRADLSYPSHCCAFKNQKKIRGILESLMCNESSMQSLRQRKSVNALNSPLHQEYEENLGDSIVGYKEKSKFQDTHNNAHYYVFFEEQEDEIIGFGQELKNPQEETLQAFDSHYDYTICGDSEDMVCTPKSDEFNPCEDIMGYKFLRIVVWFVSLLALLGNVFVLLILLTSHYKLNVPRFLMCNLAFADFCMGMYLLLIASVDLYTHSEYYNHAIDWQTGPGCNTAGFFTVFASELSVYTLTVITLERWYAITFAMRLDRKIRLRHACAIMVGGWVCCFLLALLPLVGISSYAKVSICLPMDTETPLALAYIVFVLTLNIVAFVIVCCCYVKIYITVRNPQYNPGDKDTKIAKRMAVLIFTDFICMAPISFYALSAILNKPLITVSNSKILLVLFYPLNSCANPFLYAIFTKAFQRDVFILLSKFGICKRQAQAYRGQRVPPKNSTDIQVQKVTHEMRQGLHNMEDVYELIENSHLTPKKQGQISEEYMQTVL
Sequence of UniProt Q03181 (Q03181 whole entry, looked up): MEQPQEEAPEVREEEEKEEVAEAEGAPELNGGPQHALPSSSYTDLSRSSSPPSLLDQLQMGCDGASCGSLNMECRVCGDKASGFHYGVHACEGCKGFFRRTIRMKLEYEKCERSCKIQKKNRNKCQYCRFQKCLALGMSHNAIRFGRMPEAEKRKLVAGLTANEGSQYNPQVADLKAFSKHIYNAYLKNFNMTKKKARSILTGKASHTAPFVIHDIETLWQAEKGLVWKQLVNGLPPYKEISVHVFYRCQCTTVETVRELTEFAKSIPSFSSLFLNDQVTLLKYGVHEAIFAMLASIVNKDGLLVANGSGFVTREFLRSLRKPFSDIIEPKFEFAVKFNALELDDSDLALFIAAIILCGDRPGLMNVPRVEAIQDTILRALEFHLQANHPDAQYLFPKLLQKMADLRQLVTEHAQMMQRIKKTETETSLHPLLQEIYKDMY
Sequence of UniProt Q14994 (Q14994 whole entry, looked up): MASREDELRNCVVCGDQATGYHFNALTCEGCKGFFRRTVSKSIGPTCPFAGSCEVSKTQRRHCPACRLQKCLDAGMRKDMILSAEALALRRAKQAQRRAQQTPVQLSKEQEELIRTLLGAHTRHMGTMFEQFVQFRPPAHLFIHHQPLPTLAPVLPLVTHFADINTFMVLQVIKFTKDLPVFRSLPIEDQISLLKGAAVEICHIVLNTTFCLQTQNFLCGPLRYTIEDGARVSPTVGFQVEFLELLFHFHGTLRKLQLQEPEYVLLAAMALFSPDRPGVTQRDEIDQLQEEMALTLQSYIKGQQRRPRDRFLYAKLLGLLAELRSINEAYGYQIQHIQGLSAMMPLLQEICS
Sequence of UniProt P06401 (P06401 whole entry, looked up): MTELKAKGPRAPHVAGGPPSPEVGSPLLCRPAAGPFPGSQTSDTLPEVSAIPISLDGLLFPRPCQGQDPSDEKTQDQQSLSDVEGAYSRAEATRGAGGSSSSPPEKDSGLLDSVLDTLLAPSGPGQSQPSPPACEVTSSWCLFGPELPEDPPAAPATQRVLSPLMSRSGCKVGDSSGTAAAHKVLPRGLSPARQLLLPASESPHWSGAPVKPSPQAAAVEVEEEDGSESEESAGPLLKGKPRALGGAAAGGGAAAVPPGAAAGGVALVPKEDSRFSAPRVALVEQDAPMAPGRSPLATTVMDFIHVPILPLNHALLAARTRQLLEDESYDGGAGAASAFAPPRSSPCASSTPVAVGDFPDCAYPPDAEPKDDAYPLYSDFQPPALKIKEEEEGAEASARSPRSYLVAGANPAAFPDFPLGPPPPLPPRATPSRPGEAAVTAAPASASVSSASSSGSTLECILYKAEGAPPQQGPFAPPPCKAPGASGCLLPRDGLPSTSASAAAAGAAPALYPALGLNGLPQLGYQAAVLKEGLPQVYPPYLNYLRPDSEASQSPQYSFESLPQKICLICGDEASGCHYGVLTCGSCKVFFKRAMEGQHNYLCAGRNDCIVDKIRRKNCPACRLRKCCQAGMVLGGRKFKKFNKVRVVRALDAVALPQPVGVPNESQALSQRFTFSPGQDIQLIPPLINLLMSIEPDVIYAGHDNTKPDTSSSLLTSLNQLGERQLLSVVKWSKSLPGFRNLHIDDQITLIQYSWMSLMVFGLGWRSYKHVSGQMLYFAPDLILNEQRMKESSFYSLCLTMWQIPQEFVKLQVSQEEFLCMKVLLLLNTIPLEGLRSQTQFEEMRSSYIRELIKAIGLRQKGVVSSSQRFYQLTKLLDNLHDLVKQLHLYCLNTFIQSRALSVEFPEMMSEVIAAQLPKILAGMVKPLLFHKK
Sequence of UniProt Q12809 (Q12809 whole entry, looked up): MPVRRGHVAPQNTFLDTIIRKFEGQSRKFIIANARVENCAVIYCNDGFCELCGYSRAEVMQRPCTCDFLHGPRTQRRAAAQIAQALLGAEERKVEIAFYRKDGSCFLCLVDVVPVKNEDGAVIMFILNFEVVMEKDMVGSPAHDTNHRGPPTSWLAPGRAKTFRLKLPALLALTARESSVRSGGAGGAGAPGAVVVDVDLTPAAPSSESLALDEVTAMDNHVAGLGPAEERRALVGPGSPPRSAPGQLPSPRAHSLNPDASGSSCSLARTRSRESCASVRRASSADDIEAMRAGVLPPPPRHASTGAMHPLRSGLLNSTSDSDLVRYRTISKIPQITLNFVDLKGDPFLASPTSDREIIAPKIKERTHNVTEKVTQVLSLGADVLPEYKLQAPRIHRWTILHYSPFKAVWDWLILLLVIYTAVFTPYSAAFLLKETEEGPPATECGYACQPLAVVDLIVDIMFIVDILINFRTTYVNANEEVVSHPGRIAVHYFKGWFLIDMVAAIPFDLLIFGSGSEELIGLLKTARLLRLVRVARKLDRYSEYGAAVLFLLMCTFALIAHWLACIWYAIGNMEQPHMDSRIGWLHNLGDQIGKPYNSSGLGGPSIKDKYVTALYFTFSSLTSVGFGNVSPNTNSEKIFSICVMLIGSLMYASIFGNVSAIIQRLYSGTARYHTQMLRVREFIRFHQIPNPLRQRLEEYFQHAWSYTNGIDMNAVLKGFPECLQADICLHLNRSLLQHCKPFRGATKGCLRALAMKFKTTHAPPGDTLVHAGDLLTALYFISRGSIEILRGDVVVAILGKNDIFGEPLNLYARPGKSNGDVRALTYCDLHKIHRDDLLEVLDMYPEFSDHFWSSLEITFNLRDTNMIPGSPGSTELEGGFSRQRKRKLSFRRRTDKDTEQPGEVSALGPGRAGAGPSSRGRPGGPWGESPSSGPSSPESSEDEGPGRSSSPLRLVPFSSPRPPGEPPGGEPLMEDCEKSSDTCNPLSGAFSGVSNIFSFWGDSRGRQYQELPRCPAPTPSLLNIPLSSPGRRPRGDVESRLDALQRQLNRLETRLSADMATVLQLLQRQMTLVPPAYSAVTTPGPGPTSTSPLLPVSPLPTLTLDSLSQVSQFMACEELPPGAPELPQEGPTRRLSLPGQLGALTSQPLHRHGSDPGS
Sequence of UniProt P08684 (P08684 whole entry, looked up): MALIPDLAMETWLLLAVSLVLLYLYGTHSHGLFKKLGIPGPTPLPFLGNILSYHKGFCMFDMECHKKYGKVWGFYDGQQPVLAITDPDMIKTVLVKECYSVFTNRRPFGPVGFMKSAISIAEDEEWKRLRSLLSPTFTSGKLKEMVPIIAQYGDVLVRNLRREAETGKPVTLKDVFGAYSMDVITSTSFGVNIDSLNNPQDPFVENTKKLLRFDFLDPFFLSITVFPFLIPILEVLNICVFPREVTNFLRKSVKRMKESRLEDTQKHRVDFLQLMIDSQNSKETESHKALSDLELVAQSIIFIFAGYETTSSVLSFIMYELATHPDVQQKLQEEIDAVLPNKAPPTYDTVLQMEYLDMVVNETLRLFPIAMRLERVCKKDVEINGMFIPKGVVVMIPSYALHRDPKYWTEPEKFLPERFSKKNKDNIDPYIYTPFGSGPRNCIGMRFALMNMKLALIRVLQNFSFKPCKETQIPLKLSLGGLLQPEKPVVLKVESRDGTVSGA

O=C1c2ccccc2C(=O)c2c(Cl)cccc21
Potency [1]: inconclusive: 42.4 µM [fluorescent, partial curve]
Potency [2]: inconclusive: 25.9 µM [rising, partial curve]
activity, negative = inhibition [3]: inconclusive: -20.1% [at 35.3 µM]

CC1=CC(=O)CC(C)(C)C1=O
Potency [4]: inactive
Potency [1]: inactive

CCCCN(CCO)CCO
Potency [5]: inactive
Potency [2]: inactive
Potency [6]: inconclusive: 76.7 µM [rising, single point]

CC(C)C(=O)OCc1ccccc1
Potency [1]: inconclusive: 28.4 µM [rising, partial curve, poor fit]
Potency [2]: inconclusive: 54.9 µM [rising, single point]
activity, negative = inhibition [3]: inconclusive: 19.4%

OC(CCN1CCCCC1)(c1ccccc1)C1CC2C=CC1C2 (stereo not drawn)
Potency [7]: inconclusive: 33.5 µM [cytotoxic, partial curve, poor fit]
Potency [8]: inconclusive: 26.6 µM [cytotoxic, partial curve]

CN1CCC(OC(c2ccccc2)c2ccccc2)CC1
Potency [9]: inconclusive: 0.285 µM [activator, single point]
Potency [10]: inactive
Potency [11]: inactive
Potency [8]: inconclusive: 23.7 µM [cytotoxic, partial curve]

COC(=O)c1cccc(Cl)c1
Potency [5]: inactive
Potency [12]: inactive
Potency [10]: inconclusive: 21.6 µM [rising, single point]
Potency [13]: inactive
Potency [14]: inconclusive: 6.03 µM [falling, full curve, poor fit]

CN(C)CC[C@@H](c1ccc(Br)cc1)c1ccccn1
Potency [15]: inconclusive: 0.119 µM [cytotoxic, single point]
Potency [10]: inconclusive: 13.3 µM [cytotoxic, single point]
Potency [16]: inactive
Potency [4]: inactive
Potency [8]: inconclusive: 26.6 µM [cytotoxic, partial curve]

C#CC(C)(CC)OC(=O)c1ccccc1C(=O)O (stereo not drawn)
Potency [14]: inconclusive: 0.106 µM [falling, single point]

CN(C)CCOC(=O)COc1ccc(Cl)cc1
Potency [17]: inconclusive: 54.8 µM [rising, single point]

Oc1cc(O)c2c(c1)O[C@H](c1ccc(O)c(O)c1)[C@H](O)C2
Potency [1]: inconclusive: 55.2 µM [cytotoxic]
Potency [6]: inactive

C=C(C)C(=O)NCCC[N+](C)(C)C
Potency [18]: inactive
activity change, negative = inhibition [14]: inconclusive: -0.0129%

CC(=O)CC(C)=O
Potency [2]: inactive

CN/C(=C\[N+](=O)[O-])NCCSCc1csc(CN(C)C)n1
activation [18]: inconclusive: -10.9%
Potency [14]: inconclusive: 68.6 µM [falling, single point]

NS(=O)(=O)c1cc2c(cc1C(F)(F)F)NCNS2(=O)=O
Potency [12]: inactive
Potency [1]: inactive
Potency [14]: inactive

CCCCCCCCCCCCI
Potency [18]: inconclusive: 1.54 µM [inhibitor, single point]
Potency [19]: inconclusive: 43.8 µM [inhibitor, partial curve, poor fit]

CCCCN(CCCC)CCCOC(=O)c1ccc(N)cc1
Potency [18]: inactive
Potency [14]: inconclusive: 18.8 µM [falling, partial curve]
Potency [17]: inactive
Potency [8]: inconclusive: 21.1 µM [cytotoxic, partial curve, poor fit]
Potency [19]: active: 9.52 µM

C=C[C@H]1CN2CC[C@H]1C[C@H]2[C@H](O)c1ccnc2ccc(OC)cc12
Potency [13]: inconclusive: 54.9 µM [fluorescent, single point]
Potency [2]: inconclusive: 43.6 µM [cytotoxic, partial curve, poor fit]
Potency [8]: active: 30.6 µM and inconclusive: 21.1 µM [cytotoxic, partial curve]

CO[Si](CCCNCCN)(OC)OC
Potency [11]: inactive
Potency [13]: inconclusive: 0.0389 µM [fluorescent, partial curve, poor fit]
Potency [7]: inconclusive: 54.9 µM [cytotoxic, single point]
activation [18]: inconclusive: -4.68%
Potency [6]: inactive
Potency [17]: inconclusive: 14 µM [rising, full curve]
Potency [3]: inconclusive: 44.3 µM [partial curve]
Potency [20]: inactive

CCCCOC(=O)CC(CC(=O)OCCCC)(OC(C)=O)C(=O)OCCCC
Potency [4]: inconclusive: 29.8 µM [activator, partial curve]
Potency [2]: inconclusive: 24.5 µM [cytotoxic, partial curve, poor fit]
Potency [19]: inconclusive: 16.9 µM [inhibitor, partial curve] and inconclusive: 5.56 µM [inhibitor, full curve] and inconclusive: 11 µM [inhibitor, full curve]

O=CN1CCCCC1
Potency [9]: inactive
Potency [10]: inactive
Potency [1]: inactive
